# Reference: publication PMC12136788
# Some of the results follow.
# B1: chr5:71505325:71505326:+_ENSG00000131711_ENST00000296755|hu_mus|FALSE|FALSE (ssRNA)
# RNA: GGGAGUUCUACAGUCCGACGAUCGGAACUGAGUUUCUGUUGUUUGUUUGUUUGUUUUUCCUUUACAUCAAAUAUCCUUGAUAGAAGAGGGGAUAUUGCACACAAAUAUCAUAAAAGCACUACAUAUUACUUUCACUGGAAACUCAACAGAGGAUUGAGCAUCA
# B2: chr18:56819859:56819860:+_ENSG00000166562_ENST00000588875|hu_mus|hu_hu_hu_mus_True|18_78 (ssRNA)
# RNA: GGGAGUUCUACAGUCCGACGAUCAACCUUGAUUACUCUGUGAACUAUCGGAAUGUCUCGUCCUUCAACCUUAAAAACAACUAUUUCACCAGCUCUGAUGGGGUCCUCCCGGAAAUUUGUGAGGAACAGCAGAUCUCCUCUGUGCAACAGAGGAUUGAGCAUCA
# B3: chr5:134143580:134143581:+_ENSG00000145833_ENST00000354283|hu_hu|FALSE|FALSE (ssRNA)
# RNA: GGGAGUUCUACAGUCCGACGAUCUCCUGCUCUUCCAGUCCGCCCUGCUCUGUGUACAUAAUCCUCAUAAUGGUUGGGGCAGCUAUAAUUUACUACAAGAAUCAGAUGUUUCACAUCUAGACCUCGGGCAGCAACAGAGGUAGCCAACAGAGGAUUGAGCAUCA
# B4: chrX:140365825:140365826:-_ENSMUSG00000031285_ENSMUST00000033642|mus_mus|FALSE|FALSE (ssRNA)
# RNA: GGGAGUUCUACAGUCCGACGAUCAAGUCCAUUCAUCCGUGACCCUCUCAUAUUUCUAGAUGCUUUGUCUCGUUCGUCAAAAUGUCCAAAAUCAAGUUCCAUAUUUUGGUGGAACCACAGCAACCGGUUUUCUGCUGGUUGGGUCAACAGAGGAUUGAGCAUCA
# B5: chr2:25130317:25130318:+_ENSMUSG00000026965_ENSMUST00000028341|mus_hu|FALSE|FALSE (ssRNA)
# RNA: GGGAGUUCUACAGUCCGACGAUCGGAGUCUGGGAAGUCUCGGACGAUGCUGAAGAGCUCCUCGAUGCGCAGGCUGGCGUAGAUGCGGUAGAAGAACCUUUGCACGUGGCAGCGCCAGCGGCGCAGGGUGUUGCCGGCCUCGGGCAACAGAGGAUUGAGCAUCA
# B6: chr7:54825262:54825263:-_ENSG00000132432_ENST00000352861|hu_hu|hu_hu_hu_mus_False|38_48 (ssRNA)
# RNA: GGGAGUUCUACAGUCCGACGAUCCUGCCGGCUGGGCUCCACAAACUGCAUUACCUGAUCCAUGUUUGUUGGAUGGCGGAUUGAGAGUGCCAGGGACACGUAGCACUGAGAGAACCGAGCCCAACGGAACCGGAAGCUGGCAACCAACAGAGGAUUGAGCAUCA
# B7: 63484750_63485141_14245_CDS_ENSMUSG00000030451_ENSMUST00000076226|mouse|control|control (ssRNA)
# RNA: GGGAGUUCUACAGUCCGACGAUCAGAUUCCAUCACUUCCCAGAACCACUGGACCAAGGAUGCAGAAGGCUCAAUCCCUUUAUACGUUGCCACUGACUUUAAAAGAUGCAGUGGGAUAUCUGGGCUCCCACAGACCAUUGUCUCCAACAGAGGAUUGAGCAUCA
# B8: 24911301_24911421_527_3pUTR_ENSMUSG00000006476_ENSMUST00000102931|mouse|control|control (ssRNA)
# RNA: GGGAGUUCUACAGUCCGACGAUCGUGCCGUUCCCGCUGUCUCCUCCCUUUUACCACUGCUAGCUCAAUGGCUUCAGCUUCAGAGCCAGGUAGCAGGGCGGGCUCUCUAGAGAUGGUGUACACGUGGGGCUGGGGGCCCUCUAUCAACAGAGGAUUGAGCAUCA
# B9: chr3:138219032:138219033:+_ENSMUSG00000028156_ENSMUST00000029803|mus_hu|motif|central (ssRNA)
# RNA: GGGAGUUCUACAGUCCGACGAUCUGUUACAUGAGGAAAAAAACAAAAGCAAAACAAAUGAAAAACUGAAAUCAGAAUCACGGAUAUUAUCAAGUAGGGAAACAAAUAAAUUAAAAUCUAGCAGCCAUCAGCAAGAGUACAGCACAACAGAGGAUUGAGCAUCA
# B10: chr2:232320318:232320319:-_ENSG00000115053_ENST00000322723|hu_hu|hu_hu_hu_mus_True|18_28 (ssRNA)
# RNA: GGGAGUUCUACAGUCCGACGAUCACUAUUAAAGUCUACAAAACCAAACCCUUUGGAAGAACCAGUUUCCCGAUCAGUGACUAUUCUUGCACGAACAGAGCCCUCAAAUGACUCCUUUAAUGUCUCUUCAGUGGUAUCCUCAGACAACAGAGGAUUGAGCAUCA
# B11: chr4:71802285:71802286:-_ENSMUSG00000008305_ENSMUST00000030095|mus_mus|FALSE|FALSE (ssRNA)
# RNA: GGGAGUUCUACAGUCCGACGAUCUCCAGAGGAGGCUGUGGAUGCCGGGCUACCUGAAGCAUCUUUCUUCAGCAGACGGUUUUUGUCAAUUCCGUUUUCCCGGGGUGAGUGUGUGGGGCUUGCAUGUGGAGAAGAAGGGUCCUCCAACAGAGGAUUGAGCAUCA
# B12: chr18:6437031:6437032:-_ENSMUSG00000024240_ENSMUST00000028100|mus_mus|motif|central (ssRNA)
# RNA: GGGAGUUCUACAGUCCGACGAUCUGCAGUACUGUACAGAUAAUUGCUGUAUUCUUAAUUUACAGAUGUUGAUUUUUUCCGGUUAACAAUAAGAAAAGAAAGGUUGAAGCACGAGAGAUUCGAGAGCUGCGCAGUGCUGCCGAGCAACAGAGGAUUGAGCAUCA
# B13: chr17:5392700:5392701:+_ENSG00000167842_ENST00000573759|hu_hu|FALSE|FALSE (ssRNA)
# RNA: GGGAGUUCUACAGUCCGACGAUCGUUCUGUAGUUUUCUGGAGUUCUGAACCAGGGAUACUAAACUCUCCCUAAAAUCACUAGUCCCAUGAUCUCUGCCAACAUUAUGAAGCUCAUCAAAGAAAGUCAACGUCUGUUUGAGUUUCAACAGAGGAUUGAGCAUCA
# B14: chr14:61442442:61442443:-_ENSG00000126814_ENST00000261249|hu_mus|FALSE|FALSE (ssRNA)
# RNA: GGGAGUUCUACAGUCCGACGAUCUGUGGGGAGGAGCUCCGUGCUGCAAGGCUGCCCAUCCAAAAGUGAUCUGAAAACACUGAGAAACUCUAUGGCCUUAGCUGGCAAGUUCAUGACAAUGUGGACAGAGGGUUUAGCUUCAGCCAACAGAGGAUUGAGCAUCA
# B15: chr17:87833181:87833182:-_ENSMUSG00000036438_ENSMUST00000040440|perfect_dup|FALSE|FALSE (ssRNA)
# RNA: GGGAGUUCUACAGUCCGACGAUCAGGGCUUAGAUAUAUCCAGAGUAAGCCACAUGCAACAUGUUACUUGAUCAAUUUUCUAAAAUAAGGUUUUAGGACAAUGACAGUAAGAUAAGGGAAGAAAACAUGGAGGAAUGAAGUCCUCAACAGAGGAUUGAGCAUCA
# B16: chrX:34632047:34632048:-_ENSMUSG00000036572_ENSMUST00000076265|mus_mus|FALSE|FALSE (ssRNA)
# RNA: GGGAGUUCUACAGUCCGACGAUCGACUAUUUAAAUCUUUUCCAUCAGCCAUAAUUUGCUCUAUCCUCCGCUCUACUUGUGCUACAAUUACAUGCUCAUUGCUCCUACACUACAGAGUCAACAGUCAACACCAACAAUGCAAAACAACAGAGGAUUGAGCAUCA
# B17: chr3:176767854:176767855:-_ENSG00000177565_ENST00000430069|hu_hu|hu_hu_hu_mus_False|88_98 (ssRNA)
# RNA: GGGAGUUCUACAGUCCGACGAUCGACAUCCUUGUUACUUGGAACAUCUUGCCCUCCUUCCCGUAUGCAGUGUCUAAGCACGAGCUGCGUAGGGCCACUCGUGCUGUUCUCACUGAGGUUCCAGAUUCUUGCCGUGGAGUCUCCCAACAGAGGAUUGAGCAUCA
# B18: chr12:110720550:110720551:+_ENSG00000174437_ENST00000539276|hu_mus|motif|central (ssRNA)
# RNA: GGGAGUUCUACAGUCCGACGAUCUUCCUCGAACCAAGCCAAAACGAAAGAUAUACAUGCUGCCAGCAGUAAAAUUCGGACGGGUAAGUCUUCAAACUGCUCAAUCACAAGUUCCAGCAAGGUUUUUCCUUCUUCAGCCGGCAACAACAGAGGAUUGAGCAUCA
# B19: chr8:41682716:41682717:-_ENSMUSG00000039431_ENSMUST00000048898|mus_mus|FALSE|FALSE (ssRNA)
# RNA: GGGAGUUCUACAGUCCGACGAUCCACAUCGCUGAGCUGCCAAUAAUUAUCAGGGAGGCCCAUUCGCUUGUAUUCUUCACUAAGGUCAACCAGCAACCAGCCCUGCUCCCGUUCUUCCUUAUCCAGCUUGGGGUUGAAGGAAAACAACAGAGGAUUGAGCAUCA
# B20: chr2:126475859:126475860:-_ENSMUSG00000027361_ENSMUST00000110424|mus_hu|FALSE|FALSE (ssRNA)
# RNA: GGGAGUUCUACAGUCCGACGAUCAGUUUCUGAAGAAUUGGACAAUGGAGCAGAUGCUUCAGCUAAGGCAGCUAAUGUAGCUAAUACUGAUGUAGAAGAGUUUCCAAACUGAACAGCAGAUACACCCGUUUCAUCUGUUGCCUUCAACAGAGGAUUGAGCAUCA
# B21: chr16:94664741:94664742:+_ENSMUSG00000040785_ENSMUST00000117648|mus_hu|mus_mus_mus_hu_False|18_88 (ssRNA)
# RNA: GGGAGUUCUACAGUCCGACGAUCUGGUACUGAUCUUGGUAGCUGAUACUCAGAAGAAAGGCUGGCCAAGGGUGUAUAUAUGCUGGUGUACUGGGGCAAACCUGGUAACACGUUUAUGUACGCUGGUGGUGUCUGGGUGAUAUCCAACAGAGGAUUGAGCAUCA
# B22: 134094604_134094724_126_5pUTR_ENSG00000151502_ENST00000281187|human|control|control (ssRNA)
# RNA: GGGAGUUCUACAGUCCGACGAUCCAGUGGGCGGGCGAGGGUCGGCCGUGCAAUGCUGCGGGGGGCAGCCGCACAGAGCCGGGUGUGGGUGGCCUGCGCCUGCCGGGUGGGGUCCAGCGCCGAGCAGCGCUGCGAGCUGCCCAGCAACAGAGGAUUGAGCAUCA
# Molecular target: T1, UNK ZnF1-3 (human, UniProt Q9C0B0 31-174)
# T1 sequence: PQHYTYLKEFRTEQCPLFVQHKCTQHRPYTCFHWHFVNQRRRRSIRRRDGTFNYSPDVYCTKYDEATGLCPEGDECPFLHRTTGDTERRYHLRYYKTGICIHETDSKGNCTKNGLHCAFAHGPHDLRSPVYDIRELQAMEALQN
# Test: nsRBNS (natural sequence RNA bind-n-seq); RBNS binding buffer (assumed for nsRBNS): 25 mM Tris pH 7.5, 150 mM KCl, 3 mM MgCl2, 0.01% Triton X-100, 500 ug/ml BSA, 20 U/ml SUPERase-In, 4 C; UNK is unkempt and MSI1 is Musashi-1; names of the RNAs are library labels; protein concentration not given here; high values mean tight binding
row,Binder,binding signal [enrichment R]
1,B1,1.01
2,B2,0.927
3,B3,2.12
4,B4,0.581
5,B5,0.414
6,B6,1.16
7,B7,1.05
8,B8,0.738
9,B9,3.15
10,B10,0.81
11,B11,1.24
12,B12,1.39
13,B13,1.02
14,B14,1.76
15,B15,1.76
16,B16,1.37
17,B17,0.517
18,B18,0.928
19,B19,1.43
20,B20,0.909
21,B21,0.979
22,B22,0.394
